Measurements: the RNAGym collection of RNA variant scans (doi:10.1093/nar/gkz1192)
Read counts are not given, so values of variants with three or more changes are uncertain.

B1: CPEB3 Ribozyme (parent)
chain: UAACAGGGGGCCACAGCAGAAGCGUUCACGUCGCAGCCCCUGUCAGAUUCUGGUGAAUCUGCGAAUUCUGCUGUAUAUCUC

Variants of: B1
Experiment: self-cleavage, relative activity (ratio to wild type); higher = more cleavage; in vitro, sequencing
How it was run: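 For each CPEB3 ribozyme variant, relative activity is its cleaved/total read fraction divided by the unmutated ribozyme's. Barcoded error-prone PCR libraries were transcribed by T7 RNA polymerase (5 hours, 37°C) and held in DNase I for 15 min before an EDTA stop, with cleavage occurring throughout. Template-switching reverse transcription and Illumina sequencing were used to read the RNAs. A 5-read minimum applied, and results are the mean of three batches.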
With U26C A56G U58C U80A the self-cleavage was 0.1.
Variant U26C U41A G42A A56G U58C A77G U78A has a self-cleavage of 0.08.
In the case of U26C A57U U72A, the self-cleavage is reported as 0.12.
In the case of U26C U31A U80C, the self-cleavage is reported as 0.38.
For U26C C34U A57G, the self-cleavage was 0.28.
With U26C U43C U78C the self-cleavage was 0.48.
With U26G C32A U58C U60A A64G the self-cleavage was 0.12.
With C27A A28U U43A the self-cleavage was 0.25.
U26G U31C A45U U58A U69A U72C gave a self-cleavage of 0.05.
Variant U26C U51C U72G has a self-cleavage of 0.3.
Work on U26G A47G U72A U76A yielded a self-cleavage of 0.35.
With U26C C29U U51A A56U U80A the self-cleavage was 0.09.
Variant U26C U41C U51A U54A U69C has a self-cleavage of 0.15.
In the case of U26C G33A A45G A56G, the self-cleavage is reported as 0.1.
In the case of U26G U43A U67C U72C, the self-cleavage is reported as 0.06.
U26C A56G A75G gave a self-cleavage of 0.26.
U26C U41C U48C U67C G73U showed a self-cleavage of 0.3.
For U26C U41A G55A A57G A65U, the self-cleavage was 0.13.
Work on U26C A47G U60C U67C yielded a self-cleavage of 0.07.
Variant U26C A56G U67A has a self-cleavage of 0.58.
U26C C39U U54A A64G gave a self-cleavage of 0.2.
For U26C A56G A64U, the self-cleavage was 0.14.
In the case of U26C U43C A45G, the self-cleavage is reported as 0.5.
Variant U26C U48C A64G U69C has a self-cleavage of 0.14.
With U26C U31A U41A A56G A64U U72A the self-cleavage was 0.18.
U26C C44U U67A showed a self-cleavage of 0.07.
Variant U26C U41C C44A A45G G53A has a self-cleavage of 0.22.
U26C U43C U51C gave a self-cleavage of 0.88.
U26C C32U G33A A45G showed a self-cleavage of 0.24.
In the case of U26C C34G A65U, the self-cleavage is reported as 0.22.
With U26C U31C G53U U54C the self-cleavage was 0.32.
In the case of U26C U41C A57G U60C U69A U72A U80C, the self-cleavage is reported as 0.19.
Variant U26C U41A A56G U60C U72A has a self-cleavage of 0.14.
U26C C39U A45C A56G U72C gave a self-cleavage of 0.16.
In the case of U26C A47G G73A, the self-cleavage is reported as 1.01.
Variant U26C U48C U72A has a self-cleavage of 0.26.
Variant U26C G30A U31G U41C U69G U74C has a self-cleavage of 0.08.
With U26C A45G A64G the self-cleavage was 0.11.
Work on U26C G36A G42U yielded a self-cleavage of 0.04.
For U26C C32G U41C, the self-cleavage was 0.08.
U26C U31A U74C U76A showed a self-cleavage of 0.14.
With U26C U69C A75G the self-cleavage was 0.11.
In the case of U26C G30A U51C U72A, the self-cleavage is reported as 0.27.
Variant U26C U41A U60A U78A has a self-cleavage of 0.08.
Work on U26C C29A G52U yielded a self-cleavage of 0.28.
With U26C U43C A57G U67C U72A the self-cleavage was 0.07.
In the case of U26C C32U U78A, the self-cleavage is reported as 0.19.
U26C U31A A45C U78C showed a self-cleavage of 0.36.
Variant U26C A47G U51A U58C has a self-cleavage of 0.51.
U26G U31A U41C U48C A64G showed a self-cleavage of 0.09.
U26C A56U C62U showed a self-cleavage of 0.15.
Work on U26C U41C A45G U49C A56G A77U yielded a self-cleavage of 0.07.
With C27A A57U U58G the self-cleavage was 0.07.
U26C A35U U74A showed a self-cleavage of 0.18.
Variant U26C A47U U60C has a self-cleavage of 0.14.
U26C A35U G42A U43G A56G gave a self-cleavage of 0.14.
Variant U26C U31C A64G has a self-cleavage of 0.17.
With U26C U43C G61U U69A U80C the self-cleavage was 0.18.
For U26C A56U U60C U72A, the self-cleavage was 0.11.
Variant C27A C34G U72C has a self-cleavage of 0.3.
Work on U26C A45G C62A yielded a self-cleavage of 0.15.
For U26C U54C A56U A77C, the self-cleavage was 0.1.
U26C C40A U49C A56G U80G showed a self-cleavage of 0.06.
In the case of U26C G36U A47G, the self-cleavage is reported as 0.16.
In the case of U26C U54A U66C U80G, the self-cleavage is reported as 0.18.
Variant U26C G52A U74A U80A has a self-cleavage of 0.89.
In the case of U26C C32U A35U A47G U51C, the self-cleavage is reported as 0.05.
Work on U26C G30A U51C A57U U78A yielded a self-cleavage of 0.09.
Work on U26C C27A C50U A65G U78C yielded a self-cleavage of 0.03.
For U26C U43C U60A, the self-cleavage was 0.27.
In the case of U26C U49A U54A, the self-cleavage is reported as 0.15.
U26C C37A U51C A57G gave a self-cleavage of 0.16.
For U26C U60G A64G U76G, the self-cleavage was 0.07.
U26C U48A G53U showed a self-cleavage of 0.16.
Work on U26C U43C U67C yielded a self-cleavage of 0.23.
For U26C U43C U67A, the self-cleavage was 0.41.
Variant U26C U43C U66C U69C G73A has a self-cleavage of 0.09.
U26C A47G U49C C62A U76C showed a self-cleavage of 0.22.
Work on U26C A45G U54C U66G yielded a self-cleavage of 0.09.
For U26G A56G U69A U80A, the self-cleavage was 0.06.
With U26C U51C U54C U72A the self-cleavage was 0.45.
In the case of U26C C38A A57G U58C U69A, the self-cleavage is reported as 0.14.
For U26C C44A A47G U66C, the self-cleavage was 0.1.
U26C A65G U78C showed a self-cleavage of 0.13.
For U26C C44A C68U U72A, the self-cleavage was 0.14.
In the case of U26C A56G A65G C68A, the self-cleavage is reported as 0.12.
U26C U31C U43C showed a self-cleavage of 0.59.
For U26C U60G U66G, the self-cleavage was 0.1.
Work on U26C U49C G55A U60C yielded a self-cleavage of 0.1.
U26C C32U U41C U58C A64U A65U U74C showed a self-cleavage of 0.07.
U26C U31C G33U gave a self-cleavage of 0.09.
In the case of U26C C29A U51A A57G U60C U78C, the self-cleavage is reported as 0.19.
U26C C59G U69C showed a self-cleavage of 0.09.
U26C A64G U74C showed a self-cleavage of 0.6.
U26C C27U U60C U66C gave a self-cleavage of 0.07.
U26C U54C A56G showed a self-cleavage of 0.16.
With U26C C32U U69C the self-cleavage was 0.61.
C27A A28G C39A U41C U43A gave a self-cleavage of 0.09.
In the case of U26C G61C A64G A75U, the self-cleavage is reported as 0.04.
U26C C68U U80C gave a self-cleavage of 0.57.
U26C G42A U48C showed a self-cleavage of 0.25.
For U26C U41C U60A U72A U78C, the self-cleavage was 0.15.
U26C A45U A56G showed a self-cleavage of 0.17.
Work on U26C C62U U66C U80A yielded a self-cleavage of 0.06.
U26C U49C U78C showed a self-cleavage of 0.16.
U26C U41C A65G U76C showed a self-cleavage of 0.17.
In the case of U26C A57U G63A A65G C71A, the self-cleavage is reported as 0.07.
In the case of U26C U51C A65G, the self-cleavage is reported as 0.48.
With U26C U41C A56U the self-cleavage was 0.14.
Variant U26C G33C U43C U48C A65U has a self-cleavage of 0.09.
For U26C G33U A57G A65G, the self-cleavage was 0.45.
Work on U26C C29U U48G U66C yielded a self-cleavage of 0.09.
With U26C A64G U69A the self-cleavage was 0.17.
U26C U48G G63A showed a self-cleavage of 0.11.
U26C U43G U49C U60A U67C U80C showed a self-cleavage of 0.05.
In the case of C27A C29A U80A, the self-cleavage is reported as 0.19.
With U26C U49C G53A A77G the self-cleavage was 0.14.
In the case of U26C A45G G52A U78A, the self-cleavage is reported as 0.38.
Work on C27A A64G A65G yielded a self-cleavage of 0.09.
With U26C U31A U60A the self-cleavage was 0.11.
In the case of U26C U31A U60C, the self-cleavage is reported as 0.11.
U26C G61A A65G U72G showed a self-cleavage of 0.1.
Work on U26C U58A A65U yielded a self-cleavage of 0.16.
U26C U41A A65C showed a self-cleavage of 0.09.
For U26C U66C U80C, the self-cleavage was 0.22.
In the case of U26C U43C U69A, the self-cleavage is reported as 0.29.
For U26C U31C C40A A47U A56G, the self-cleavage was 0.33.
U26C C40A U41C A47G A57G A64G gave a self-cleavage of 0.12.
For U26C U43C G61U G70U, the self-cleavage was 0.12.
U26C A75G A77G showed a self-cleavage of 0.13.
U26C A35U U54C A56U G70C showed a self-cleavage of 0.13.
Variant U26G C44G C62A has a self-cleavage of 0.07.
Work on U26C U41C G42C U69C A77G U80A yielded a self-cleavage of 0.15.
U26C G33A A47G U69A showed a self-cleavage of 0.23.
In the case of U26C C29G U51C U67C, the self-cleavage is reported as 0.04.
Variant U26C G30U A56G has a self-cleavage of 0.08.
For U26C C29G U31A U48C, the self-cleavage was 0.19.
Work on U26C C37G A47G U51A A56G C62A yielded a self-cleavage of 0.1.
With U26C U43C U48C U74C U78C the self-cleavage was 0.24.
In the case of U26C A35U U48C G52A, the self-cleavage is reported as 0.38.
In the case of U26C U43A U54C U60A, the self-cleavage is reported as 0.13.
With C27A A45G A47G the self-cleavage was 0.13.
Variant U26C C62G U80C has a self-cleavage of 0.22.
U26C C29G A35G U72A gave a self-cleavage of 0.17.
With U26C A45U U48C U58A the self-cleavage was 0.18.
U26C C29U A35U A45U A56G showed a self-cleavage of 0.19.
Work on U26C G36A U51A U67G U76G yielded a self-cleavage of 0.05.
For U26C C27A U41C U60C U72C, the self-cleavage was 0.06.
Work on U26C U54C U69C yielded a self-cleavage of 0.35.
Variant C27A C37U U78A has a self-cleavage of 0.27.
Work on U26C A35U U69C yielded a self-cleavage of 0.13.
U26C C38G U41C U43A U76C showed a self-cleavage of 0.11.
For U26C A64G A65U, the self-cleavage was 0.1.
Work on U26C U31A A47U yielded a self-cleavage of 0.1.
For U26G A45G U66G, the self-cleavage was 0.19.
Variant U26C A35U C37U A45U U51A has a self-cleavage of 0.06.
For U26C U49A U51A, the self-cleavage was 0.19.
For U26C C39G C59A, the self-cleavage was 0.12.
Work on U26C C44U A47U U48C U78C yielded a self-cleavage of 0.16.
With U26G U41A A57G G61C U74C the self-cleavage was 0.4.
Work on U26C G30C U67C U69C C79U yielded a self-cleavage of 0.08.
With U26C A45G A65G U69G the self-cleavage was 0.12.
For U26C U43A A56U, the self-cleavage was 0.11.
In the case of U26C U41C U51A C79A, the self-cleavage is reported as 0.65.
U26C A47G A56G U60A A64U showed a self-cleavage of 0.17.
U26C C37U A45G U67C showed a self-cleavage of 0.1.
For U26C C34U U41A, the self-cleavage was 0.1.
